Data taken from publication PMC4336329 (PLoS ONE, 2015).
Screen size: about 310,000 compounds; about 2,200 (0.71%) showed an effect of 50% or more. Effects have a minus sign here. The list shows a part of the results.

Each compound was assayed against human ether-à-go-go-related gene (hERG) potassium channel (human, UniProt Q12809) (assay: primary screen, population patch clamp on CHO cells stably expressing hERG).
human ether-à-go-go-related gene (hERG) potassium channel, sequence (Q12809 whole entry, looked up): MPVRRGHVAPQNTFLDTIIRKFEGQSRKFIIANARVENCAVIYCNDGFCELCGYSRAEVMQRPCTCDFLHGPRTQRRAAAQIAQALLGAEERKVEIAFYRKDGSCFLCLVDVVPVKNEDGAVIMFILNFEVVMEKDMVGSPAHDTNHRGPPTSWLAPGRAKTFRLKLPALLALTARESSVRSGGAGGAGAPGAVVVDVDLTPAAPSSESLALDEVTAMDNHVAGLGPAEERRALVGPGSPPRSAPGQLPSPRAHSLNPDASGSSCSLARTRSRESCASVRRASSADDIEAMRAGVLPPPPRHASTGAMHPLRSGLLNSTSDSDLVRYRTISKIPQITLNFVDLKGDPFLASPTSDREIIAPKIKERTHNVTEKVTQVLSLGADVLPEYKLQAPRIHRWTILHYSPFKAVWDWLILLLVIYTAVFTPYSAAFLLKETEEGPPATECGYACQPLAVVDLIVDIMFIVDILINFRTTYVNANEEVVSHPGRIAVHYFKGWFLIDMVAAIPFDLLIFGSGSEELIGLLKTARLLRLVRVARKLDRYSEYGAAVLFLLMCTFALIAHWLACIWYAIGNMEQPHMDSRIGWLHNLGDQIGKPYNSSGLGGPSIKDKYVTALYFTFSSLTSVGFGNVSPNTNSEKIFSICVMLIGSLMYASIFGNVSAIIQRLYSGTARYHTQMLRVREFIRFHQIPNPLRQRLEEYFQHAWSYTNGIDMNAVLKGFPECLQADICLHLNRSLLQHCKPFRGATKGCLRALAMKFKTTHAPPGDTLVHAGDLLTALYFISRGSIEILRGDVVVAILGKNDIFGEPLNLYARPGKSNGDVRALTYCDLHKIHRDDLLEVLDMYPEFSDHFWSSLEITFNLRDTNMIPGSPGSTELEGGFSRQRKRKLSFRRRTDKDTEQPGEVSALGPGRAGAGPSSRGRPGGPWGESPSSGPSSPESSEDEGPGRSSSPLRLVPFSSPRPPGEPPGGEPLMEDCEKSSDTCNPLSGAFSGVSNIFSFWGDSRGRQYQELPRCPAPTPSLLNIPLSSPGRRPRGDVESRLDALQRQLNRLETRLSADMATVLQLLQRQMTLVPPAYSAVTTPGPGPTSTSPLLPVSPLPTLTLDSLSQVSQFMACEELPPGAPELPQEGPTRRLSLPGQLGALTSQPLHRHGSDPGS

Row | SMILES | hERG current change (%, negative = inhibition) at 1uM [%]
1 | CCOC(=O)C1=C(c2ccc(OC)cc2)OC(N)=C(C#N)C1c1cccnc1 (stereo not drawn) | 11.6
2 | Nc1ccc(S(N)(=O)=O)cc1N.O=S(=O)(O)O | 14.2
3 | O=C(CSc1nccc(=O)[nH]1)NCc1ccc2c(c1)OCO2 | 12.8
4 | CC1CCC(NC(=O)C2CC(=O)N(c3ccc4c(c3)OCCO4)C2)CC1 (stereo not drawn) | 13.8
5 | COC(=O)c1cc(-c2ccc(S(=O)(=O)N3CCCCC3)cc2)c(C(F)(F)F)s1 | -4.67
6 | CCC(=O)c1ccc(OC(=O)c2cnccn2)cc1 | 15.8
7 | COC(=O)CCC(=O)Nc1ccccc1C(N)=O | 13.2
8 | CC(C)(C)NC(=O)C1CCC(CNS(=O)(=O)c2cccc3nsnc23)CC1 (stereo not drawn) | 6.75
9 | COc1ccc(-n2c(COc3ccccc3)nnc2SCC(N)=O)cc1 | 10.3
10 | O=C(CN1C(=O)NC2(CCSC2)C1=O)N1CCN(c2ccc(F)cc2)CC1 (stereo not drawn) | -3.67
11 | NC1=Nc2cccc3cccc1c23 | 12.8
12 | Cc1cccc(-c2cccc(NC(=O)C3CCCN(C(=O)c4csc(C)n4)C3)c2)c1 (stereo not drawn) | 10.2
13 | O=C(NCCOc1ccccc1)C1CCCCC1 | 12.1
14 | O=C(/C=C/c1ccc(Cl)cc1)NC(=S)Nc1ccccc1C(=O)O | 12.2
15 | Cc1nc(CSc2nnc(C)s2)cs1 | -5.67
16 | c1ccc(-c2cncnc2)nc1 | 7.42
17 | CCOC(=O)n1c(=O)[nH]c2ccc(Br)cc21 | 7.43
18 | CC(C)n1c(=NC(=O)c2ccco2)c(C#N)cc2c(=O)n3ccccc3cc21 | -16.1
19 | O=C(c1ccc(COc2c(F)c(F)c(F)c(F)c2F)o1)N1CCN(Cc2ccc3c(c2)OCO3)CC1 | 5.12
20 | COc1cccc(N2C(=O)Nc3ccc(Br)cc3C2(O)C(=O)NCCN(C)C)c1 (stereo not drawn) | 13.4
21 | COc1cc(NC(=O)c2ccc(-c3ccc(Br)cc3)o2)ccc1NC(=O)C(C)C | 3.88
22 | CCc1ccc(OC(C)C(=O)N(Cc2ccccc2)C2CCS(=O)(=O)C2)cc1 (stereo not drawn) | 4.42

Row | SMILES | hERG current change (%, negative = inhibition) at 1uM [%]
23 | Cc1ccc(C)c(OCC(=O)NCCNC(=O)COc2cc(C)ccc2C)c1 | 7.04
24 | COc1cc(/C=N/n2c(-c3n[nH]c4c3CCC4)n[nH]c2=S)cc(OC)c1O | 15.5
25 | O=C(CCc1nnc2ccc(NCc3ccco3)nn12)Nc1ccc(F)cc1 | 8.96
26 | COc1ccc(S(=O)(=O)Nc2ccccc2C(=O)OC2CCCN(C)C2)cc1OC.Cl (stereo not drawn) | 11.7
27 | COc1cccc(C2C(C(=O)c3cccs3)=C(O)C(=O)N2CCN(C)C)c1OC (stereo not drawn) | -0.698
28 | N#Cc1c(-c2ccco2)nc(NCC2CCCO2)[nH]c1=O (stereo not drawn) | 3.22
29 | Cn1c(SCC(=O)Nc2nccs2)nnc1-c1ccccn1 | 14.1
30 | C#CCOCCOCCOCCNc1nc(N2CCN(C(=O)C([C@@H](C)CC)n3cc(C(N)CC(C)C)nn3)CC2)nc(N2CCN(C(=O)[C@H](CCC(=O)O)n3cc(C(N)Cc4ccc(O)cc4)nn3)CC2)n1.Cl (stereo partly drawn) | 6.87
31 | COCC(C)n1c(SCc2cc(=O)n3cc(C)ccc3n2)nc2ccccc2c1=O (stereo not drawn) | 0.472
32 | CCS(=O)(=O)N1CCN(c2cccc(C)c2C)CC1 | 7.08
33 | Cc1cc(NC(=O)c2cc(-c3ccc(C)s3)nc3ccccc23)no1 | 8.26
34 | CC(=O)c1cccc(NC(=O)C2CCN(C(=O)c3ccc([N+](=O)[O-])cc3)CC2)c1 | -34.2
35 | CC(=O)N(Cc1cccnc1)c1cccc(-c2nc3ccccc3s2)c1 | -22.4
36 | COC(=O)[C@H](C)NC(=O)c1cc2c(cn1)[nH]c1ccccc12 | 5.31
37 | O=C(CCN1CCOCC1)NC1CCCN(Cc2ccccc2F)C1 (stereo not drawn) | -6.2
38 | c1ccc(-n2nnnc2-n2ccnc2)cc1 | 2.97
39 | O=C(O)C(=O)O.c1ccc(-c2ccccc2OCCOCCN2CCCCC2)cc1 | -18.9
40 | Cc1ccc(-c2nnc(Nc3ccc4c(c3)OCO4)c3ccccc23)cc1S(=O)(=O)NC(C)C | -3.03
41 | COc1ccc(OC)c(Nc2nc(-c3ccncc3)nc3ccccc23)c1 | 9.73
42 | CCN1CCN(C(=O)CCc2nnc3ccc(N4CCC5(CC4)OCCO5)nn23)CC1 | 15
43 | Cc1cccc(C(=O)Nc2nsc(N)n2)c1 | 6.52
44 | CCn1nc(C)c(CN2CCCC(CO)(Cc3cccc(Cl)c3)C2)c1C (stereo not drawn) | -8.15

Row | SMILES | hERG current change (%, negative = inhibition) at 1uM [%]
45 | Cc1c(C(=O)N2CCCCC2)oc2ccc(Br)cc12 | 3.66
46 | CC(c1ccco1)N(C(=O)c1ccccc1NS(=O)(=O)c1ccc(Cl)cc1)c1ccccn1 (stereo not drawn) | -3.84
47 | Cc1cccc(-n2c(N)cc(=O)nc2SCC(=O)NC2CCCCC2)c1 | 4.35
48 | O=C(NCc1cccc(F)c1)c1noc2c1CCCC2 | 12.5
49 | O=C(c1cc2c(s1)CCC2)N1CCN(c2ccccc2)CC1 | 11.6
50 | Cn1ncc([N+](=O)[O-])c1C(=O)N/N=C/c1c[nH]c2ccccc12 | 15.2
51 | Cc1ccc(S(=O)(=O)N2CCN(C(=O)CCC(=O)NCCc3ccc(S(N)(=O)=O)cc3)CC2)c(C)c1 | 10.1
52 | COC(=O)c1c(O)cc(C(C)(C)C)n(-c2ccc(F)cc2)c1=O | 4.49
53 | N#C/C(=C/c1ccc(-c2cc(C(=O)O)cc(C(=O)O)c2)o1)c1nc2ccccc2s1 | 22.1
54 | CCNC(=O)/C(C#N)=C/c1c(N2CCN(c3cccc(Cl)c3)CC2)nc2c(C)cccn2c1=O | 11.3
55 | Cc1ccn(-c2cc(O)c(-n3ccc(C)n3)cc2O)n1 | 9.01
56 | COCCn1c(SCC#N)nnc1-c1ccc(OC)cc1 | 14.3
57 | Cn1c(=O)c2c(SCC(=O)Nc3ccc4c(c3)OCCO4)nc(CC(C)(C)C)nc2n(C)c1=O | 15.5
58 | O=C1CCCCCC1C1(O)C(=O)Nc2ccc(Br)cc21 (stereo not drawn) | 16.8
59 | C/C(=N\NC(=O)c1ccccc1)c1ccc(C)c([N+](=O)[O-])c1 | 13.1
60 | O=C(c1ccco1)N1CCC(c2ccccc2)C1 (stereo not drawn) | -5.58
61 | COc1ccc(NC(=O)c2ccc(N3C(=O)C4CC=C(C)CC4C3=O)cc2)c(OC)c1 (stereo not drawn) | 13.6
62 | CC1CCCC(NC(=O)COC(=O)c2sc3ccccc3c2Cl)C1C (stereo not drawn) | 7.76
63 | COCCN1C(=O)/C(=C2/C(=O)N(CC(=O)Nc3ccccc3Cl)c3ccccc32)SC1=S | 17.4
64 | COC(=O)c1ccc(NC(=O)CSc2nnc(CNc3ccc(F)cc3)n2C)cc1 | 8.17
65 | Cl.O=C(COc1ccc2ccc(=O)oc2c1)N1CCN(c2ccccc2)CC1 | 5.42
66 | O=C(CN1CCN(C(=O)c2cccc(F)c2)CC1)Nc1ccccc1F | -36.4

Row | SMILES | hERG current change (%, negative = inhibition) at 1uM [%]
67 | COC(=O)C1=C(C)N(Cc2cccnc2)C(=O)/C1=C\c1sccc1C | 5.41
68 | CCCCn1c(N)c(N(CC(C)C)C(=O)c2cc(C)oc2C)c(=O)[nH]c1=O | 15.4
69 | CCOc1ccc(CN(Cc2ccco2)S(=O)(=O)c2ccc(-n3cnnn3)c(OC)c2)cc1 | 2.18
70 | C=CCn1c(SCC(=O)Nc2nnc(C)s2)nnc1-c1cccnc1 | 30.2
71 | O=C(Nc1nc2c(s1)CCCC2)c1ccc(Br)o1 | 4.52
72 | O=C1CC(c2ccccc2)CC2=C1C(c1ccccn1)Nc1ccccc1N2 (stereo not drawn) | 19.2
73 | CCOc1ccc(CC(=O)Nc2cccc(-c3ccc4nnc(C)n4n3)c2)cc1 | 5.13
74 | CCc1ccccc1NC(=S)NC1CC2CCC(C1)N2Cc1ccco1 (stereo not drawn) | -2.28
75 | CCOc1ccc(N(CC(=O)Nc2ccc(C)c(C)c2)S(C)(=O)=O)cc1 | 20.5
76 | CN(C)c1cccc(C(=O)OCC(=O)N2CCc3ccccc3C2)c1 | 6.68
77 | CCOc1cc(-c2c(C#N)c(N)nc3c2CCCC3)ccc1O | 18.6
78 | Cc1nnc(C)n1/N=C/c1cccc(Oc2ccccc2)c1 | 5.24
79 | O=C(NCc1ccc(N2CCCC2=O)cc1)c1ccc(F)cc1 | 9.09
80 | Brc1ccc(-c2cnnc(N3CCCC3)n2)cc1 | -5.19
81 | Brc1ccc(-c2ccc(/C=N/Nc3nc(N4CCOCC4)nc(N4CCOCC4)n3)o2)cc1 | -9.33
82 | COc1cccc(C(=O)C2CCCN(C3CCOCC3)C2)c1 (stereo not drawn) | -8.65
83 | CC(=O)Nc1ccc2nc(NC(=O)CS(=O)(=O)c3ccccc3)sc2c1 | 1.78
84 | CN(c1ccc(C(=O)Nc2ccc3c(c2)OCO3)cc1)S(C)(=O)=O | 6.83
85 | Cc1nc(CS(=O)(=O)c2ccc(Cl)cc2)cc(Sc2ccccc2Cl)n1 | 8.12
86 | CSc1ccccc1NC(=O)c1c(Br)cnn1C | 3.91
87 | CCOc1ncccc1C(=O)NCCc1ccc(OC)cc1 | 10.2
